# According to the supplement of paper PMC8728848:
# Some of the results follow.
# How the values were obtained:
# Test in all cases: glycan array binding signal (z-score within array); higher = stronger binding
# Settings in all cases: glycan notation: IUPAC condensed, linker removed
# [1] = molecular target: Gal(a1-4)Gal(b1-4)GlcNAc(b1-3)Gal(b1-4)Glc
# In short: (§1)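 Glycan array binding is given as a within-array Z-score, which can be read as non-binding when negative. The arrays, 3228 of them, came from the Consortium for Functional Glycomics database and were retained only where the protein sequence was available. Z-scores were averaged across arrays of the same protein sequence at different concentrations or buffers and across linkers.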
# Gal(a1-4)GlcNAc = molecular target: Gal(a1-4)GlcNAc
# In short: as §1
# Gal(a1-6)Glc = molecular target: Gal(a1-6)Glc
# In short: as §1
# Gal(b1-2)Gal = molecular target: Gal(b1-2)Gal
# In short: as §1
# Gal(b1-3)Gal = molecular target: Gal(b1-3)Gal
# In short: as §1
# Gal(b1-3)Gal(b1-4)GlcNAc = molecular target: Gal(b1-3)Gal(b1-4)GlcNAc
# In short: as §1
# Gal(b1-3)GalNAc = molecular target: Gal(b1-3)GalNAc
# In short: as §1
# [2] = molecular target: Gal(b1-3)GalNAc(a1-3)[Fuc(a1-2)]Gal(b1-4)Glc
# In short: as §1
# [3] = molecular target: Gal(b1-3)GalNAc(a1-3)[Fuc(a1-2)]Gal(b1-4)GlcNAc
# In short: as §1
# Gal(b1-3)GalNAc(b1-3)Gal = molecular target: Gal(b1-3)GalNAc(b1-3)Gal
# In short: as §1
# [4] = molecular target: Gal(b1-3)GalNAc(b1-3)Gal(a1-4)Gal(b1-4)Glc
# In short: as §1
# [5] = molecular target: Gal(b1-3)GalNAc(b1-4)Gal(b1-4)Glc
# In short: as §1
# [6] = molecular target: Gal(b1-3)GalNAc(b1-4)[Neu5Ac(a2-3)]Gal(b1-4)Glc
# In short: as §1
# Gal(b1-3)GlcNAc = molecular target: Gal(b1-3)GlcNAc
# In short: as §1
# [7] = molecular target: Gal(b1-3)GlcNAc(a1-3)Gal(b1-4)GlcNAc
# In short: as §1
# [8] = molecular target: Gal(b1-3)GlcNAc(a1-6)Gal(b1-4)GlcNAc
# In short: as §1
# Gal(b1-3)GlcNAc(b1-2)Man = molecular target: Gal(b1-3)GlcNAc(b1-2)Man
# In short: as §1
# [9] = molecular target: Gal(b1-3)GlcNAc(b1-2)Man(a1-3)[Gal(b1-3)GlcNAc(b1-2)Man(a1-6)]Man(b1-4)GlcNAc(b1-4)GlcNAc
# In short: as §1
# [10] = molecular target: Gal(b1-3)GlcNAc(b1-2)Man(a1-3)[Gal(b1-3)GlcNAc(b1-2)Man(a1-6)]Man(b1-4)GlcNAc(b1-4)[Fuc(a1-6)]GlcNAc
# In short: as §1
# [11] = molecular target: Gal(b1-3)GlcNAc(b1-2)Man(a1-3)[GlcNAc(b1-4)][Gal(b1-3)GlcNAc(b1-2)Man(a1-6)]Man(b1-4)GlcNAc(b1-4)GlcNAc
# In short: as §1
# [12] = molecular target: Gal(b1-3)GlcNAc(b1-2)[Gal(b1-3)GlcNAc(b1-6)]Man(a1-6)[Gal(b1-3)GlcNAc(b1-2)Man(a1-3)]Man(b1-4)GlcNAc(b1-4)GlcNAc
# In short: as §1
# [13] = molecular target: Gal(b1-3)GlcNAc(b1-3)Gal(b1-3)GlcNAc
# In short: as §1
# [14] = molecular target: Gal(b1-3)GlcNAc(b1-3)Gal(b1-4)Glc
# In short: as §1
# [15] = molecular target: Gal(b1-3)GlcNAc(b1-3)Gal(b1-4)GlcNAc
# In short: as §1
# [16] = molecular target: Gal(b1-3)GlcNAc(b1-3)Gal(b1-4)GlcNAc(b1-2)Man(a1-3)[Gal(b1-3)GlcNAc(b1-3)Gal(b1-4)GlcNAc(b1-2)Man(a1-6)]Man(b1-4)GlcNAc(b1-4)GlcNAc
# In short: as §1
# [17] = molecular target: Gal(b1-3)GlcNAc(b1-3)Gal(b1-4)GlcNAc(b1-2)[Gal(b1-3)GlcNAc(b1-3)Gal(b1-4)GlcNAc(b1-6)]Man(a1-6)[Gal(b1-3)GlcNAc(b1-3)Gal(b1-4)GlcNAc(b1-2)Man(a1-3)]Man(b1-4)GlcNAc(b1-4)[Fuc(a1-6)]GlcNAc
# In short: as §1
# [18] = molecular target: Gal(b1-3)GlcNAc(b1-3)Gal(b1-4)GlcNAc(b1-3)Gal(b1-4)GlcNAc(b1-2)[Gal(b1-3)GlcNAc(b1-3)Gal(b1-4)GlcNAc(b1-3)Gal(b1-4)GlcNAc(b1-6)]Man(a1-6)[Gal(b1-3)GlcNAc(b1-3)Gal(b1-4)GlcNAc(b1-3)Gal(b1-4)GlcNAc(b1-2)Man(a1-3)]Man(b1-4)GlcNAc(b1-4)[Fuc(a1-6)]GlcNAc
# In short: as §1
# [19] = molecular target: Gal(b1-3)GlcNAc(b1-3)Gal(b1-4)GlcNAc(b1-6)[Gal(b1-3)GlcNAc(b1-3)]Gal(b1-4)Glc
# In short: as §1
# [20] = molecular target: Gal(b1-3)GlcNAc(b1-3)Gal(b1-4)[Fuc(a1-3)]GlcNAc
# In short: as §1
# [21] = molecular target: Gal(b1-3)GlcNAc(b1-3)Gal(b1-4)[Fuc(a1-3)]GlcNAc(b1-6)[Gal(b1-3)GlcNAc(b1-3)]Gal(b1-4)Glc
# In short: as §1
# [22] = molecular target: Gal(b1-3)GlcNAc(b1-3)GalNAc
# In short: as §1
# [23] = molecular target: Gal(b1-3)GlcNAc(b1-6)Gal(b1-4)GlcNAc
# In short: as §1
# [24] = molecular target: Gal(b1-3)GlcNAc(b1-6)GalNAc
# In short: as §1
# [25] = molecular target: Gal(b1-3)GlcNAc(b1-6)[Gal(b1-3)]GalNAc
# In short: as §1
# Gal(b1-3)GlcNAc6S = molecular target: Gal(b1-3)GlcNAc6S
# In short: as §1
# [26] = molecular target: Gal(b1-3)[Fuc(a1-4)]GlcNAc
# In short: as §1
# [27] = molecular target: Gal(b1-3)[Fuc(a1-4)]GlcNAc(b1-2)Man
# In short: as §1
# [28] = molecular target: Gal(b1-3)[Fuc(a1-4)]GlcNAc(b1-2)Man(a1-3)[Gal(b1-3)[Fuc(a1-4)]GlcNAc(b1-2)Man(a1-6)]Man(b1-4)GlcNAc(b1-4)[Fuc(a1-6)]GlcNAc
# In short: as §1
# [29] = molecular target: Gal(b1-3)[Fuc(a1-4)]GlcNAc(b1-3)Gal(b1-3)[Fuc(a1-4)]GlcNAc
# In short: as §1
# [30] = molecular target: Gal(b1-3)[Fuc(a1-4)]GlcNAc(b1-3)Gal(b1-4)GlcNAc
# In short: as §1
# [31] = molecular target: Gal(b1-3)[Fuc(a1-4)]GlcNAc(b1-3)Gal(b1-4)[Fuc(a1-3)]GlcNAc
# In short: as §1
# [32] = molecular target: Gal(b1-3)[Fuc(a1-4)]GlcNAc(b1-6)GalNAc
# In short: as §1
# [33] = molecular target: Gal(b1-3)[GlcNAc(b1-6)]GalNAc
# In short: as §1
# [34] = molecular target: Gal(b1-3)[Neu5Ac(a2-6)]GalNAc
# In short: as §1
# [35] = molecular target: Gal(b1-3)[Neu5Ac(a2-6)]GlcNAc(b1-4)Gal(b1-4)Glc
# In short: as §1
binder,measurement,setting,value
rMpL (Macrolepiota procera) (protein) MSTQVSSGRTYKITNVIAGTVIDLSGEDNKSIIGYPYHSGKNQQWTFNWTGKAWTLRSASSGSYLGIEGTPAGGTRLVAVNDPFEWHIWRDEANENAFRIFVPFTNYNLDLSGYGDTTPGTPVQLWWTWEGLHQTWTIDRP,glycan array binding signal (z-score),[1],-0.334
same,glycan array binding signal (z-score),Gal(a1-4)GlcNAc,-0.351
same,glycan array binding signal (z-score),Gal(a1-6)Glc,-0.305
same,glycan array binding signal (z-score),Gal(b1-2)Gal,-0.322
same,glycan array binding signal (z-score),Gal(b1-3)Gal,-0.239
same,glycan array binding signal (z-score),Gal(b1-3)Gal(b1-4)GlcNAc,-0.257
same,glycan array binding signal (z-score),Gal(b1-3)GalNAc,-0.273
same,glycan array binding signal (z-score),[2],-0.084
same,glycan array binding signal (z-score),[3],-0.155
same,glycan array binding signal (z-score),Gal(b1-3)GalNAc(b1-3)Gal,-0.243
same,glycan array binding signal (z-score),[4],-0.22
same,glycan array binding signal (z-score),[5],-0.17
same,glycan array binding signal (z-score),[6],-0.293
same,glycan array binding signal (z-score),Gal(b1-3)GlcNAc,0.376
same,glycan array binding signal (z-score),[7],0.896
same,glycan array binding signal (z-score),[8],1.95
same,glycan array binding signal (z-score),Gal(b1-3)GlcNAc(b1-2)Man,0.202
same,glycan array binding signal (z-score),[9],2.45
same,glycan array binding signal (z-score),[10],0.864
same,glycan array binding signal (z-score),[11],2.85
same,glycan array binding signal (z-score),[12],3.42
same,glycan array binding signal (z-score),[13],0.42
same,glycan array binding signal (z-score),[14],0.808
same,glycan array binding signal (z-score),[15],0.716
same,glycan array binding signal (z-score),[16],2.18
same,glycan array binding signal (z-score),[17],2.4
same,glycan array binding signal (z-score),[18],3.58
same,glycan array binding signal (z-score),[19],4.17
same,glycan array binding signal (z-score),[20],0.567
same,glycan array binding signal (z-score),[21],2.71
same,glycan array binding signal (z-score),[22],0.153
same,glycan array binding signal (z-score),[23],1.8
same,glycan array binding signal (z-score),[24],0.242
same,glycan array binding signal (z-score),[25],0.111
same,glycan array binding signal (z-score),Gal(b1-3)GlcNAc6S,-0.257
same,glycan array binding signal (z-score),[26],-0.339
same,glycan array binding signal (z-score),[27],-0.002
same,glycan array binding signal (z-score),[28],-0.163
same,glycan array binding signal (z-score),[29],-0.238
same,glycan array binding signal (z-score),[30],0.949
same,glycan array binding signal (z-score),[31],-0.309
same,glycan array binding signal (z-score),[32],-0.166
same,glycan array binding signal (z-score),[33],-0.29
same,glycan array binding signal (z-score),[34],-0.283
same,glycan array binding signal (z-score),[35],-0.319
